# Laboratory results: paper PMC4336329 (PLoS ONE, 2015)
# Hit rate of the full screen: of about 310,000 compounds, about 2,200 (0.71%) showed an effect of 50% or more. Effects have a minus sign here. This is one part of the list.
# Target: human ether-à-go-go-related gene (hERG) potassium channel (human, UniProt Q12809)
# Assay: primary screen, population patch clamp on CHO cells stably expressing hERG
# human ether-à-go-go-related gene (hERG) potassium channel, sequence (Q12809 whole entry, looked up): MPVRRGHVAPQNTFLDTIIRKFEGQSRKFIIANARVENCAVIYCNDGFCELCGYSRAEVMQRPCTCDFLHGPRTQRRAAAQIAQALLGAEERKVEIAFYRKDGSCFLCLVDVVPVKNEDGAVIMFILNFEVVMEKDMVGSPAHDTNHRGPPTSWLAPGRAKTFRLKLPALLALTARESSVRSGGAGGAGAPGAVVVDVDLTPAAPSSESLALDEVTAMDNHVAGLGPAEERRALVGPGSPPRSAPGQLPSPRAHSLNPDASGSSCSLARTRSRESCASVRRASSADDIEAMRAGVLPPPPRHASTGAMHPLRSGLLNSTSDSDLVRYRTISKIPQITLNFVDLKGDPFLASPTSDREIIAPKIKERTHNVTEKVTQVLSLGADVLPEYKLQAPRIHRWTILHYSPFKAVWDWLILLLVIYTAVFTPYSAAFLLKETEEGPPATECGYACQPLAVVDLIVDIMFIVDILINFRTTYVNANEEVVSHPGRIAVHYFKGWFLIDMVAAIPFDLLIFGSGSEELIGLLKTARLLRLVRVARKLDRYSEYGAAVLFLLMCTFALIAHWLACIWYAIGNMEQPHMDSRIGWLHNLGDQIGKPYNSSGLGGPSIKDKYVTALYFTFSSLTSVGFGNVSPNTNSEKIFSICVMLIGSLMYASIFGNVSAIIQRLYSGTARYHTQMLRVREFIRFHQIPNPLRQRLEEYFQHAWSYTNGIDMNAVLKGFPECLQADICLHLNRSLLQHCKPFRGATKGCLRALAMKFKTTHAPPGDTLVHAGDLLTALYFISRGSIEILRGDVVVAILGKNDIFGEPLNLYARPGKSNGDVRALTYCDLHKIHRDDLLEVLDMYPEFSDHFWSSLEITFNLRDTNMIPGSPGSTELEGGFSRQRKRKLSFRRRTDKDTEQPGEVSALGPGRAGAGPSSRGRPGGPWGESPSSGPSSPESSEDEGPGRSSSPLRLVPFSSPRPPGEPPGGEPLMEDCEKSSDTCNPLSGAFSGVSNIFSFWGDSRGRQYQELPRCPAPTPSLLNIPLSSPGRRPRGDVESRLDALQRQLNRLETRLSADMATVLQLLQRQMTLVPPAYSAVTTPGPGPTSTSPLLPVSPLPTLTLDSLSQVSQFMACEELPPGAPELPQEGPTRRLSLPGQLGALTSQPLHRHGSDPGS
row,SMILES,"hERG current change (%, negative = inhibition) at 1uM [%]"
1,CSCC[C@H](NC(=O)Nc1ccc(C)cc1C)C(=O)O,-7.16
2,Cn1cccc1C(=O)N1CCN(c2cccc(C(F)(F)F)c2)CC1,11.9
3,Cc1cc(Br)c(NC(=O)c2ccccc2[N+](=O)[O-])cc1C,4.52
4,Nc1nc(SCC(=O)NCc2ccco2)[nH]c(=O)c1-c1ccccc1,8.98
5,CC1=CC(C)(C)Nc2ccc(OC(=O)c3ccco3)cc21,5.24
6,CC(C)CSc1oc(-c2ccco2)nc1S(=O)(=O)c1ccccc1,-1.1
7,Cc1ccc2c(c1)N(CC(=O)N1CCN(C3CCCCC3)CC1)C(=O)CO2,-1.72
8,COc1ccc(CNc2ccc3c(c2)ncn3-c2ccccc2OC)cc1,-7.92
9,O=C(CNC(=O)c1ccc(Br)cc1)c1ccccc1,17.5
10,O=c1[nH]c(CSc2ccccn2)nc2ccccc12,6.7
11,C=C(Br)CN1CCN(CC(=C)Br)CC1,8.31
12,CCN1C(=O)N[C@@H](c2ccccc2)[C@H](C(=O)OC)[C@H]1C,8.39
13,O=C(Nc1ccc(N2CCN(C(=O)c3ccco3)CC2)cc1)c1ccccc1Br,12.7
14,CC(Sc1nc2c(c(=O)[nH]1)CCCC2)C(=O)Nc1ccccc1C#N (centres unmarked),19.4
15,COc1ccc(C(=O)OCC(=O)N2CCOCC2)cc1S(=O)(=O)N1CCOCC1,9.24
16,CCOC(=O)c1c(C)[nH]c(O)c1C=Nc1ccccc1,8.32
17,O=c1c2ccccc2c(-c2ccccc2)nn1-c1cc(Cl)ccc1[N+](=O)[O-],14.7
18,Cc1ccccc1Nc1nc(N)nc(CN(C)Cc2ccccc2Cl)n1,8.65
19,NC(=O)c1ccccc1NC(=O)Nc1cccc(Cl)c1,-5.75
20,Fc1cccc(NC(=S)NCc2ccccn2)c1,2.61
21,COc1ccc(S(=O)(=O)N2CCOCC2)cc1NC(=O)c1ccc2c(c1)OCO2,7.9
22,O=C(Nc1ccc(C(F)(F)F)cc1)c1cccc(-n2cnnn2)c1,5.95
23,COc1ccc(-c2cc(C(=O)NC3CCCC3)no2)cc1,10.2

row,SMILES,"hERG current change (%, negative = inhibition) at 1uM [%]"
1,CCn1nc(C)cc1C(=O)N1CCCC(N2CCN(Cc3ccc4c(c3)OCO4)CC2)C1 (centres unmarked),9.04
2,CC(Oc1ccc(C(=O)c2ccc(F)cc2)cc1)C(=O)N1CCOCC1 (centres unmarked),9.67
3,COc1cc(CN2CCCCCC2)cc([N+](=O)[O-])c1O,11.2
4,CCC1(C)Cc2c(sc3nc(NC)n(C)c(=O)c23)CO1.Cl (centres unmarked),6.38
5,Cc1ccc(-n2nnnc2-c2cnoc2-c2cccc(F)c2)cc1,11.6
6,COc1ccccc1C(=O)N1CC2(C)CC1CC(C)(C)C2 (centres unmarked),15
7,COc1cccc(N2CCN(C(=S)Nc3ccccc3)CC2)c1,17
8,Cc1ccnc(NC(=O)Cc2c(F)cccc2Cl)c1,6.44
9,CC1(C)NC(=O)N(CC(=O)N2CCN(S(=O)(=O)c3ccccc3C(F)(F)F)CC2)C1=O,13.7
10,COC(=O)C1=C(C)N(CCCC(=O)O)C(=O)NC1c1cccc(OC)c1 (centres unmarked),10.9
11,CCOc1ccc(CCNC(=O)CCc2nc(-c3ccc(OC)cc3)no2)cc1OCC,8.96
12,O=C(C1CCCN1S(=O)(=O)c1cccc2nsnc12)N1CCCCCC1 (centres unmarked),13.8
13,CCN(CC)S(=O)(=O)c1ccc(C(=O)Nc2nnc(-c3ccco3)o2)cc1,7.23
14,CCOC(=O)C1=C(COC(=O)CNC(=O)c2cc(OC)c(OC)c(OC)c2)NC(=O)NC1C (centres unmarked),3.59
15,COC(=O)c1ccccc1NC(=O)CN1C(=O)c2ccccc2S1(=O)=O,8.1
16,CCCc1nc(NC(=O)c2ccccc2)nc(NC(=O)c2ccccc2)n1,-2.45
17,COc1ccc(C(=O)N/N=C/c2ccc(OC(=O)c3cccs3)cc2)cc1,4.39
18,O=C(COc1ccccc1)Nc1ccc([N+](=O)[O-])cc1,6.2
19,CCOc1ccccc1NC(=O)COC(=O)COc1c(Cl)cc(Cl)c2ccc(C)nc12,7.8
20,Cc1cc(C)c(C#N)c(SCc2nnc(-c3ccccc3[N+](=O)[O-])o2)n1,6.98
21,CC1(C)Oc2ccc(C(=O)N/N=C/c3ccc(O)cc3)cc2NC1=O,14
22,CCOC(=O)[C@H]1[C@H]2COc3ccc(Cl)cc3[C@@H]2N2C(=O)c3cc(F)c(F)cc3NC(=O)[C@@]12C,9.69
23,O=C(NNC(=O)C1CC(c2cccs2)=NO1)Nc1ccc(Cl)cc1 (centres unmarked),11

row,SMILES,"hERG current change (%, negative = inhibition) at 1uM [%]"
1,O=C(CSCc1cc(=O)n2ccsc2n1)Nc1ccccc1,11.4
2,COc1cc(C(O)c2nc3ccccc3n2C(C)C)cc(OC)c1OC (centres unmarked),14.5
3,Cc1ccc(NC(=O)c2cnn(-c3ccccc3)c2C)c(C)c1,11.3
4,O=C(c1c[nH]c(C(=O)C(Cl)(Cl)Cl)c1)c1ccc(F)cc1Cl,15.3
5,Cc1c(C=O)c2ccccc2n1Cc1ccccc1,9.71
6,CC(=O)Nc1ccc(NC(=O)CC(c2ccccc2)c2ccccc2)cc1,17.5
7,N#Cc1cc2c(nc1SCC(=O)N1CCOCC1)CCCCC2,16.4
8,C=C1N(c2ccccc2)C(=O)OC1(C)C,9.87
9,Cn1ncc(Cl)c1C(=O)N1CCN(S(=O)(=O)c2ccc(F)cc2)CC1,6.27
10,O=C(Nc1ccccc1)c1ccc(Br)c(S(=O)(=O)Nc2ccccn2)c1,8.98
11,CC(C)(Oc1ccc(Cl)cc1)C(=O)NCCN1C(=O)S/C(=C/c2cccnc2)C1=O,-16.7
12,O=C(NCCN1CCOCC1)C(=O)NCC1OCCN1S(=O)(=O)c1cc(F)ccc1F (centres unmarked),-0.597
13,CCOC(=O)N(Cc1ccccc1)C(C(=O)O)C(C(=O)O)N(Cc1ccccc1)C(=O)OCC (centres unmarked),13.7
14,CCOc1ccc(N2C(=O)c3ccccc3C2O)cc1 (centres unmarked),-3.93
15,O=C(c1ccc2ccccc2n1)N1CCN(Cc2c(F)cccc2Cl)CC1,8.6
16,O=C(Cc1cccc2ccccc12)NCCC1=CCCCC1,-3.43
17,Cl.N=C1CCCN1c1ccccc1O,8.75
18,Br.c1cc2c(cc1-c1csc(NNC3=NCCCCC3)n1)OCCO2,-18.8
19,CC1CCN(c2nc3ccc(C(=O)N4CCN(Cc5ccc6c(c5)OCO6)CC4)cc3s2)CC1,7.9
20,COc1ccc(CCN(C)S(=O)(=O)c2cn(C)c(=O)n(C)c2=O)cc1OC,9.43
21,Cc1ccccc1Nc1ncnc2c1cnn2-c1ccccc1,13.2
22,CC(C(=O)NC1C=CS(=O)(=O)C1)N1C(=O)/C(=C/c2cccc(Cl)c2)SC1=S (centres unmarked),4.53
23,O=C(Nc1nccs1)C1CCN(S(=O)(=O)c2cnc[nH]2)CC1,9.81

row,SMILES,"hERG current change (%, negative = inhibition) at 1uM [%]"
1,CC(O)c1cccc(NC(=O)CC(c2ccccc2)c2ccccc2)c1 (centres unmarked),12
2,Cc1cc(C)nc(N2CCN(C(=O)c3ccc(S(=O)(=O)N4CCCCCC4)cc3)CC2)n1,6.85
3,O=C(CCn1c(=O)oc2ccccc21)Nc1ccccc1,15.3
4,COc1ccccc1NC(=S)NNC(=O)c1ccncc1,17.9
5,COc1ccc(N=c2cc(-c3ccc(O)cc3)oc3ccccc23)cc1.Cl,-2.66
6,O=C(Nc1ccc(F)cc1)c1ccccc1S(=O)(=O)c1ccccc1[N+](=O)[O-],2.52
7,Cc1cc(C)c(S(=O)(=O)N2CCC(C(=O)NCc3ccncc3)CC2)c(C)c1,11.9
8,CCC1CCCCN1CCCNC(=O)CN1C(=O)COc2ccc(S(=O)(=O)N3CCOCC3)cc21 (centres unmarked),-0.484
9,Cc1cc(=O)oc(C)c1C(=O)N1CCN(C)CC1,16.2
10,Cc1ccc(-c2cc(C(=O)Nc3ccccc3C)c3ccccc3n2)o1,11.8
11,CCCCCCCn1c(=O)c(C(=O)OC)c(N)c2ccccc21,9.28
12,CCOc1ccccc1N(CC(=O)Nc1cc(OC)ccc1OC)S(=O)(=O)c1ccccc1,20.6
13,COCCN1C(=O)c2ccc(C(=O)Nc3cccnc3)cc2C1=O,10.9
14,CC1=C(C(=O)OC2CCCCC2)C(c2ccco2)n2ncnc2N1 (centres unmarked),5.57
15,Cc1ccc(N2CC(O)Cn3c2nc2c3c(=O)n(C)c(=O)n2C)cc1 (centres unmarked),13.5
16,CCCOP(=O)(c1ccc(N(C)C)cc1)C(O)c1cc(OC)ccc1OC (centres unmarked),13.1
17,CC(C)NC(=O)c1ccc2c(c1)S(=O)(=O)c1ccccc1C2=O,20.3
18,COc1cccc(NC(=O)CCc2nc(-c3ccccc3F)no2)c1,8.74
19,O=C(O)c1ccc(N/N=C/c2ccc3nccnc3c2)cc1,8.83
20,O=c1nc(SCc2c(F)cccc2Cl)nc(-c2ccccc2)[nH]1,14.9
